Source: publication PMC4336329 (PLoS ONE, 2015)
Screen size: about 310,000 compounds; about 14,000 (4.5%) showed an effect of 50% or more. The effect is printed as a negative number. This is one part of the list.

target: human ether-à-go-go-related gene (hERG) potassium channel (human, UniProt Q12809); assay: primary screen, population patch clamp on CHO cells stably expressing hERG
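Note: peak tail current of the secondary pulse compared with the same well before compound.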

human ether-à-go-go-related gene (hERG) potassium channel, sequence (Q12809 whole entry, looked up): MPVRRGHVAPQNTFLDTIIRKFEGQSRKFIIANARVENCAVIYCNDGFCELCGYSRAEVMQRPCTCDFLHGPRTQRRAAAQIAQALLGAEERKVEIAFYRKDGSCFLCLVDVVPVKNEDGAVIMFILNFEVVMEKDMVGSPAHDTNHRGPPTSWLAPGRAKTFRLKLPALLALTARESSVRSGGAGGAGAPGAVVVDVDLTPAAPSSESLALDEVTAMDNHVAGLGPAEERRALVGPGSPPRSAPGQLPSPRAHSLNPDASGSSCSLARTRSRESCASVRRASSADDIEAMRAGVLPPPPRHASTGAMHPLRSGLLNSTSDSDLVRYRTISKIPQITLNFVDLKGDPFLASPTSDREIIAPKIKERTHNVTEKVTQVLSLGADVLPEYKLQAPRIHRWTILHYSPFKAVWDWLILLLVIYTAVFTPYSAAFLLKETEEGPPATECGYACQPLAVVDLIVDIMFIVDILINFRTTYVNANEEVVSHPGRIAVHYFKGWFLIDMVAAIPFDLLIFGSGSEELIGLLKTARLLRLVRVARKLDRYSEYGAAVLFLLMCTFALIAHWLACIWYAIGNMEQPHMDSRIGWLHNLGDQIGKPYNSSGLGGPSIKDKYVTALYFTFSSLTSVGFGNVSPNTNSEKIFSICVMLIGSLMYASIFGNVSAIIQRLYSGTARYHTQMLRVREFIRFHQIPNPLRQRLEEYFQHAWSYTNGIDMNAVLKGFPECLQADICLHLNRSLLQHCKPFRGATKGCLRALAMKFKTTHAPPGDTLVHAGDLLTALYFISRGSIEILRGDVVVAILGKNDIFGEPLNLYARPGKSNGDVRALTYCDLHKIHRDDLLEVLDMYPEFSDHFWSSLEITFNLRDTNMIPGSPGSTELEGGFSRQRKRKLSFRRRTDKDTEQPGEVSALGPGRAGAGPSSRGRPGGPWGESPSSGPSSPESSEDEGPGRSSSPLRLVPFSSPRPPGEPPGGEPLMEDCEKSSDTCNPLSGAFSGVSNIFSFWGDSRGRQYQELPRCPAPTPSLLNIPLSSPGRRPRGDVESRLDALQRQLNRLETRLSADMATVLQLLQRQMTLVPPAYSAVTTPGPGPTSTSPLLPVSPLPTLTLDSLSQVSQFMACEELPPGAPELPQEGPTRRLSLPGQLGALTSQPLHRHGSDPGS

Structure (SMILES)	hERG current change (%, negative = inhibition) at 10uM [%]
COc1ccc(C(=O)N2CCCC(c3nc(-c4cc(OC)c(OC)c(OC)c4)no3)C2)cc1 (stereo not shown)	-29.8
CCC(=O)Nc1ccc(Cl)c(NC(=O)c2cccc(OC)c2)c1	14.2
CCn1c2ccccc2c2cc(NC(=O)COC(=O)c3cc(S(=O)(=O)N4CCCCC4)ccc3Cl)ccc21	4.8
O=C(Nc1ccccc1)Nc1ccncc1	6.4
CCc1ccc(NC(=S)NC2CC3CCC(C2)N3Cc2ccco2)cc1 (stereo not shown)	-45.5
O=S(=O)(c1ccccc1)N1CCC(Oc2ccc(-n3cnnn3)cc2)CC1	-74.8
O=C(COC(=O)c1cc(=O)[nH]c2ccc(Br)cc12)c1ccccc1	23.3
CCn1c(C)c(C(C)=O)c(N2CCN(c3ccc(OC)cc3)CC2)nc1=S	-19
COc1ccc(CCC(=O)Nc2ccc(C)c(S(=O)(=O)N(C)C)c2)cc1OC	-17.5
CCC(C)NS(=O)(=O)c1ccc(NS(=O)(=O)c2ccccc2[N+](=O)[O-])cc1 (stereo not shown)	5.33
C=CCn1c(COc2ccc(F)cc2)nnc1SC(C)C(=O)NCC1CCCO1 (stereo not shown)	-16.8
COc1ccc(C(=O)N/N=C/c2cc3ccccc3[nH]c2=S)cc1	-5.03
NC(=O)COC(=O)CC1CC2CCC1C2 (stereo not shown)	16.1
CN1CCN(C(=O)COc2ccc(S(=O)(=O)NCc3ccccc3)cc2Cl)CC1	-16.3
CCc1cc2cccc(C)c2nc1SCC(=O)N1CCN(C(=O)c2ccco2)CC1	-54.4
CCCNC(=O)c1onc(CSc2ccccc2)c1C(=O)NCCC	-3.81
Cc1cccc(NC(=S)N/N=C/c2cccn2Cc2ccc(F)cc2)c1	-9.66
COc1ccc2cc(-c3cccnc3)ncc2c1	-7.88
COc1ccc(OC)c(/C=N/Nc2cc(C)nc(N3CCOCC3)n2)c1	5.7
CC12CCC(C(=O)Nc3cccc(NC(=O)C45CCC(C)(C(=O)O4)C5(C)C)n3)(OC1=O)C2(C)C	4.86
CCCCNC(=S)N(C)/N=C/c1ccc(F)cc1	-8.72
CCCOc1ccc2oc(=O)c3c(c2c1)CCCN3C(=O)CN1CCc2ccccc2C1	-24.1
Cc1cccc(-c2c3c(=O)n(C)c(=O)n(C)c3cn2C(C)(C)C)c1	0.456
Cc1ccc(C)n1-c1c(C(=O)NN)cnn1-c1ccccc1	15.2
Cc1nc(N(C)C)c2sc(=S)n(Cc3ccccc3)c2n1	10.9
O=c1c2ccccc2nc(COc2ccccc2)n1/N=C/c1cn[nH]c1-c1ccccc1	3.39
O=C(c1ccc(Cn2cc(Cl)c([N+](=O)[O-])n2)cc1)N1CCN(Cc2ccccc2)CC1	-12.5
O=P(c1ccccc1)(c1ccccc1)C(O)c1ccco1 (stereo not shown)	-1.06

Structure (SMILES)	hERG current change (%, negative = inhibition) at 10uM [%]
CCOc1ccc(NC(=O)C2CCN(S(=O)(=O)c3ccc4c(c3)C(C)(C)C(=O)N4C)CC2)cc1	11.2
COc1ccc(NS(=O)(=O)c2ccc(N3CCOCC3)c(NC(=O)c3ccco3)c2)cc1	30.3
N#Cc1cccc(S(=O)(=O)NCC(=O)NCc2ccc3c(c2)OCO3)c1	5.51
O=C(CC1(O)C(=O)c2ccccc2C1=O)c1ccccc1	9.5
O=C(O)CN1CCN(c2ncc(C(F)(F)F)cc2Cl)CC1	11.6
COC(=O)CCC(=O)c1oc2ccc(Br)cc2c1N	2.16
CC(C)CNC(=O)[C@H](Cc1ccccc1)NC(=O)c1cccs1	13.3
Cc1ccc(C)c(NC(=O)COc2cccc3c2CCN(Cc2ccccc2C)C3=O)c1	14.9
Cc1ccc(S(=O)(=O)N/N=C\c2cn(CC(N)=O)c3ccccc23)cc1	5.13
O=C(CSc1ccccc1)Nc1ccc(C(=O)Nc2cccc(O)c2)cc1	24.7
[O-][N+]12CCCCC1CCCC2CO (stereo not shown)	5.38
CC(c1ccc(C(C)(C)C)cc1)S(=O)CC(O)CO (stereo not shown)	11.4
CCOc1ccccc1-n1nnnc1SCC(=O)NCC1(N2CCOCC2)CCCCC1	-67.7
S=c1[nH]c2cnccc2n1Cc1ccccc1	12.4
CCCCN1C(=O)/C(=C/C=C2/C=Cc3ccccc3N2CC)SC1=S	5.02
O=C(/C=C/c1ncc(C(F)(F)F)cc1Cl)OCc1ccccc1	6.37
CC(C)(C)OC(=O)N[C@@H](C(=O)OC(C)(C)C)c1ccc2c(c1)OCO2	-4.85
CC(=O)c1cccc(NC(=O)c2cc(-c3ccco3)on2)c1	-11.6
COc1ccc(CN(Cc2cc3cc(C)ccc3[nH]c2=O)C(=O)N(C)C)cc1	-9.97
CCn1c(SCC(=O)NC2CCCCC2)nnc1C(C)NC(=O)c1ccccc1F (stereo not shown)	-6.74
Cc1cc(C(=O)Nc2ccc3ccccc3c2)oc1C	-68.1
CN1/C(=C/C(=O)c2nc(S(C)(=O)=O)ncc2Cl)C(C)(C)c2ccccc21	-29.9
O=C(c1cc(-c2ccccn2)nc2ccc(Cl)cc12)N1CCN(CCc2ccccc2)CC1	6.73
CCN=C(Nc1ccc2c(c1)OCO2)SC1CC(=O)N(c2ccccc2F)C1=O (stereo not shown)	-14.8
O=C(CCC(=O)N1CCCCC1)Nc1nnc(C2CCCCC2)s1	9.81
COCCNC(=O)C(c1ccco1)N(C(=O)Cn1nnc2ccccc21)c1cccc(C)c1C (stereo not shown)	-1.46
O=C(NNC(=O)c1cc(-c2ccc(Cl)cc2)nc2ccccc12)c1csc(N2CCOCC2)n1	-22.9
